Results reported in PubChem BioAssay AID1347165 (National Center for Advancing Translational Sciences (NCATS), 2019).
Screen size: about 220,000 compounds; about 5,700 (2.6%) were called active. Inconclusive results, whose numbers are uncertain, are shown with a selection of clear calls. Calls follow the shape of the dose curve; as a rule, active = well fitted inhibition curve with a large enough effect; inconclusive = small, poorly fitted or top-dose-only effect; inactive = no such curve, though single readings can be large or run the other way. Potencies of inconclusive entries are doubtful fits and often do not repeat.

Biological target: Lysine-specific demethylase 5B (Homo sapiens) (UniProt Q9UGL1)
UniProt Q9UGL1, sequence (Q9UGL1 whole entry, looked up): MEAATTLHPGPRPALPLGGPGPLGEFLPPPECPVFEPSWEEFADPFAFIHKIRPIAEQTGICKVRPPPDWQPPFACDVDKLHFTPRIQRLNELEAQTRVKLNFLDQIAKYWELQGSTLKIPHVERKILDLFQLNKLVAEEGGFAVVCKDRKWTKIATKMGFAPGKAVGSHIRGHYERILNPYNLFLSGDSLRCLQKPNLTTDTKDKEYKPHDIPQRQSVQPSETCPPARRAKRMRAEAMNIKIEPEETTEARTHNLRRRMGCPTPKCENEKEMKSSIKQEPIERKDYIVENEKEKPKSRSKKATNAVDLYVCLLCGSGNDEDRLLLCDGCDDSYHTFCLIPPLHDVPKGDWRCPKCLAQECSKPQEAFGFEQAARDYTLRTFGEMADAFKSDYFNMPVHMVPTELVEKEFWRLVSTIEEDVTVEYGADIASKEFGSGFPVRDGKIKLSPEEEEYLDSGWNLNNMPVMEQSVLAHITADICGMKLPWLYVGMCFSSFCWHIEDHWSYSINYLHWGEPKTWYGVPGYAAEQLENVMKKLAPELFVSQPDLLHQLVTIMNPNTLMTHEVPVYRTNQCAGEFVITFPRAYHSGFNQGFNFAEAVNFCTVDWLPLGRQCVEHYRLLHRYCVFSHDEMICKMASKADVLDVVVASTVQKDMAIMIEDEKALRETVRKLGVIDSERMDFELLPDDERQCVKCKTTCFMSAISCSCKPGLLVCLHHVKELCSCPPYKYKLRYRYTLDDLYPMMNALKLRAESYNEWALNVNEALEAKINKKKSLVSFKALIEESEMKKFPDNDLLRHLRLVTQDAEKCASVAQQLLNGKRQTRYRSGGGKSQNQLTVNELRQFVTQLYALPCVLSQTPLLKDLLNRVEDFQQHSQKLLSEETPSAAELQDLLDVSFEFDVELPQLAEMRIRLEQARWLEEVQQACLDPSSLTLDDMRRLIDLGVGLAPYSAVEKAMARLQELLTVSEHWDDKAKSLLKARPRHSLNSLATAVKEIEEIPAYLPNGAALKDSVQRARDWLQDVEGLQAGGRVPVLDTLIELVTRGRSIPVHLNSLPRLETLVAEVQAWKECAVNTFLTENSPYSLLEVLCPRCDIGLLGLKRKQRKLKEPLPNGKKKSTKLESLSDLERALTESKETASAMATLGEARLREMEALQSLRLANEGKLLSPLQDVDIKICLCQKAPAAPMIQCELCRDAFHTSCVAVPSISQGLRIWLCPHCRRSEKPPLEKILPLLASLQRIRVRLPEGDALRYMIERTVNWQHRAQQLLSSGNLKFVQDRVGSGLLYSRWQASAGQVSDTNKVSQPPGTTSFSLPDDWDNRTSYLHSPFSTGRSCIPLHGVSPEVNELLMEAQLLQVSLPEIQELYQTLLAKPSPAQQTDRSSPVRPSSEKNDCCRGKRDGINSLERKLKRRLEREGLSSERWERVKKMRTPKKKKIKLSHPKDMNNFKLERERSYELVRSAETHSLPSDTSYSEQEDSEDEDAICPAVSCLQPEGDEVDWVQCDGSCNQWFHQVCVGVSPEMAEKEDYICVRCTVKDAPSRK
Assay: Primary screen for KDM5B Histone Demethylases FDH-coupled qHTS; also: nearly all actives have a fitted effect of over 70% in size; as to activity change, negative = inhibition: 0% is about no effect
Settings: FDH-coupled NADH fluorescence (FDH is formaldehyde dehydrogenase); activity change, negative = inhibition: at 57.7 µM (top of the series) unless noted
How it was run: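 Compound dilutions met 200 nM (final) KDM5BΔAP for 10 min at room temperature before substrate addition. The substrate mix held 12.5 µM H3K4me3 with cofactors 25 µM α-ketoglutarate and 50 µM Fe²⁺. NADH signal gain over 30 min defined activity.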
Potency is read from the fitted curve at half-maximal effect; tags tell the direction and shape of the fitted curve.

SMILES	Potency	activity change, negative = inhibition
Cc1ccc(C(=O)/C=C/Nc2ccc(N(C)C)cc2)cc1C	inconclusive: 7.08 µM [inhibitor, full curve, poor fit]	–
COc1ccc(OC)c(C2CC(=O)Nc3c2c(C)nn3-c2ccc3nnc(C)n3n2)c1 (stereo not given)	inactive	–
CCCCNC(=O)c1cccc(NC(=O)c2nsc3ccccc23)c1	inconclusive: 44.7 µM [inhibitor, single point]	–
CCCC(=O)N1CCC2(CC1)SCC(=O)N2c1ccc(F)cc1	inconclusive: 31.6 µM [inhibitor, partial curve, poor fit]	–
COc1ccc(/C=C(/CC(=O)O)c2nc3ccccc3o2)cc1OC	inconclusive: 28.2 µM [inhibitor, partial curve, poor fit]	–
Cc1ccc(S(=O)(=O)c2nnn3c2nc(NC2CCCC2)c2ccccc23)cc1	inconclusive: 5.01 µM [inhibitor, full curve, poor fit]	–
CCN1CCN(C(=O)NC(c2ccc(C)c(F)c2)C(Cl)(Cl)Cl)CC1 (stereo not given)	inactive	–
Cc1nn(-c2ccccn2)c(C)c1[C@@H]1C=C[C@@H](NC(=O)c2cccs2)C1	inconclusive: 50.1 µM [inhibitor, single point]	–
COc1ccccc1N1CCN(c2ncnc3c2c(-c2ccccc2)cn3-c2cccc(Cl)c2)CC1	inconclusive: 10 µM [inhibitor, partial curve, poor fit]	–
CS(=O)(=O)CCCN	inactive	–
COc1ccc(CNC[C@H]2Cn3c(-c4ccc(Cl)cc4)cnc3CO2)cn1	inactive	–
COc1ccccc1NC1CN(C(=O)OC(C)(C)C)C1	inconclusive: 100 µM [inhibitor, partial curve]	–
COCC(=O)N[C@H]1C[C@H]2C(=O)NC[C@@H](CCC(=O)NCc3ccccc3)N2C1	inconclusive: 31.6 µM [inhibitor, single point]	–
Cc1cn2cc(C(=O)N3CCC(Oc4cccnc4)CC3)ccc2n1	inconclusive: 20 µM [inhibitor, partial curve, poor fit]	–
COc1cc2ccccc2cc1C(=O)N/N=C/c1ccc2c(c1)OCO2	inconclusive: 39.8 µM [inhibitor, single point]	–
CCOc1ccc(NCc2cccn2-c2nnc(N3CCC(C(=O)NCc4ccccc4Cl)CC3)s2)cc1	inconclusive: 10 µM [inhibitor, partial curve, poor fit]	–
COc1ccc(Cl)cc1NC(=O)N1CCN(S(=O)(=O)c2ccc3c(ccn3C)c2)CC1	inconclusive: 3.98 µM [inhibitor, partial curve, poor fit]	–
COCc1noc(CC2CCOC3(CCN(C(=O)c4c[nH]c5ccccc45)CC3)C2)n1 (stereo not given)	inactive	–
O=C(Nc1nc2cc3c(cc2s1)OCCCO3)c1cc(Br)ccc1Cl	inconclusive: 35.5 µM [inhibitor, partial curve, poor fit]	–
Cc1cccc(CSCC(=O)O)c1	inactive	–

SMILES	Potency	activity change, negative = inhibition
Cc1ccc2nc(Nc3ccc(C)c(C)c3)c3nncn3c2c1	inconclusive: 28.2 µM [inhibitor, partial curve, poor fit]	–
Cn1nc(-c2ccccc2F)c2cc(C(=O)NCc3ccccc3Cl)sc21	inconclusive: 28.2 µM [inhibitor, partial curve, poor fit]	–
COc1ccc(CC(=O)N2CCc3cc(OC)c(OC)cc3C2COc2ccc(F)cc2)cc1 (stereo not given)	inactive	–
COc1ccc(-c2cnc3[nH]cc(CC(=O)Nc4ccncc4)c3c2)cc1	inconclusive: 5.62 µM [inhibitor, full curve]	–
COc1ccc(-c2cc(C(=O)Nc3cc(C)on3)c3ccccc3n2)c(OC)c1	inconclusive: 35.5 µM [inhibitor, partial curve, poor fit]	–
CCCSCCCNC(=O)c1ccc(C)c(NC(=O)c2nsc3ccccc23)c1	inconclusive: 31.6 µM [inhibitor, partial curve, poor fit]	–
Cc1cccc(C(=O)NNC(=S)NC(=O)c2ccc(C(C)(C)C)cc2)c1	inconclusive: 39.8 µM [inhibitor, single point]	–
O=C(c1cnn(C(=O)c2ccco2)c1)c1cc(Cl)cc(Cl)c1O	inconclusive: 20 µM [inhibitor, partial curve, poor fit]	–
O=C1Nc2ccccc2O/C1=C\c1ccccc1	inconclusive: 25.1 µM [inhibitor, partial curve, poor fit]	–
CCC(NC(=O)C1CCCO1)C12CC3CC(CC(C3)C1)C2 (stereo not given)	inactive	–
Cc1cc2c(cc1NS(=O)(=O)c1ccc(Br)cc1)n(C)c(=O)c(=O)n2C	inconclusive: 14.1 µM [inhibitor, partial curve, poor fit]	–
Clc1ccc(-c2nnn3c2nc(NC2CCCCC2)c2ccccc23)cc1	inconclusive: 14.1 µM [inhibitor, partial curve, poor fit]	–
CCOc1ccc(Nc2ncnc3c2c(-c2ccccc2)cn3-c2cccc(C)c2)cc1	inconclusive: 10 µM [inhibitor, partial curve, poor fit]	–
CCOc1ccc(C(=O)N(Cc2ccc(C(C)C)cc2)Cc2ccco2)cc1	inconclusive: 15.8 µM [inhibitor, partial curve, poor fit]	–
O=C1CCN(Cc2cccnc2)CCCC(C(=O)NCCCn2cccn2)CCN1 (stereo not given)	inconclusive: 39.8 µM [inhibitor, single point]	–
COC(=O)c1ccc(COc2ccc3c(C)c(Cc4ccccc4)c(=O)oc3c2)o1	inconclusive: 39.8 µM [inhibitor, single point]	–
COCC(=O)N1C[C@@H]2C[C@H]1C(=O)N(Cc1ccc(OC(F)(F)F)cc1)c1ccccc1O2	inconclusive: 3.55 µM [inhibitor, partial curve, poor fit]	–
CCS(=O)(=O)N1CCCc2cc(C(=O)Nc3cccc(C(C)=O)c3)ccc21	–	inconclusive: -35.3% [inhibitor]
COc1cc(NC(=O)c2cccc(Cl)c2Cl)ccc1NC(=O)c1cc2ccccc2o1	inconclusive: 35.5 µM [inhibitor, single point]	–
COc1ccc(Nc2nc(N3CCN(c4ccccc4OC)CC3)nc3c2cnn3C)cc1	inactive	–
